# Measurements reported in ChEMBL document CHEMBL5606460, “ASAP - DENV-2 NS2B-NS3 protease fluorescence single point” (2024).
# The campaign covered roughly 2,000 compounds. About 110 (5.5%) showed an effect of 50% or more. The list shows a part of the results.
# Biological target: Genome polyprotein (dengue virus type 2) (UniProt P29990)
# [1] = Thailand/16681/1984, Concentration 25.0 uM, Number of replicates 1.0
smiles,measurement,setting,value
O[C@H]1CCCN(Cc2c[nH]c3ccccc23)C1,inhibition,"Thailand/16681/1984, Concentration 49.5 uM, Number of replicates 2.0, Standard deviation 1.322977815786229 %",-1.72%
same,inhibition,"Thailand/16681/1984, Concentration 99.01 uM, Number of replicates 2.0, Standard deviation 1.2713215002863676 %",-1.49%
same,inhibition,"Thailand/16681/1984, Concentration 198.0 uM, Number of replicates 2.0, Standard deviation 2.2915353645990124 %",0.512%
O=Cc1ccc(N2CCC(C(=O)NCCCc3nnc4ccccn34)CC2)cc1,inhibition,[1],13.4%
C=CCN(Cc1cccc(OC)c1)C(=O)C1CCN(c2ccc(C=O)cc2)CC1,inhibition,[1],13.3%
CNC(=O)CC[C@H]1CCCN(C(=O)C2CCN(c3ccc(C=O)cc3)CC2)C1,inhibition,[1],13.1%
O[C@@H]1CN(Cc2c[nH]c3ccccc23)CC[C@@H]1c1ccccc1,inhibition,"Thailand/16681/1984, Concentration 49.5 uM, Number of replicates 2.0, Standard deviation 0.6047610831853614 %",-4.77%
same,inhibition,"Thailand/16681/1984, Concentration 99.01 uM, Number of replicates 2.0, Standard deviation 0.15342767839638968 %",-1.95%
same,inhibition,"Thailand/16681/1984, Concentration 198.0 uM, Number of replicates 2.0, Standard deviation 0.5453076639312573 %",0.64%
COc1ccc(CN2CCC(c3c[nH]c4cccnc34)CC2)cc1,inhibition,"Thailand/16681/1984, Concentration 49.5 uM, Number of replicates 2.0, Standard deviation 1.0599295140140363 %",-5.96%
same,inhibition,"Thailand/16681/1984, Concentration 99.01 uM, Number of replicates 2.0, Standard deviation 2.601239089707855 %",-4.03%
same,inhibition,"Thailand/16681/1984, Concentration 198.0 uM, Number of replicates 2.0, Standard deviation 1.953646229576449 %",-2.13%
Cc1cnccc1NC(=O)c1cc(C)n(-c2ccccn2)n1,inhibition,"Thailand/16681/1984, Concentration 49.5 uM, Number of replicates 2.0, Standard deviation 5.212715901800097 %",-3.94%
same,inhibition,"Thailand/16681/1984, Concentration 99.01 uM, Number of replicates 2.0, Standard deviation 5.225272038027372 %",-2.71%
same,inhibition,"Thailand/16681/1984, Concentration 198.0 uM, Number of replicates 2.0, Standard deviation 4.995398574389316 %",-1.97%
Cc1cnccc1NC(=O)Cc1csc(Cc2ccccc2)n1,inhibition,"Thailand/16681/1984, Concentration 49.5 uM, Number of replicates 2.0, Standard deviation 3.934890489512347 %",-2.65%
same,inhibition,"Thailand/16681/1984, Concentration 99.01 uM, Number of replicates 2.0, Standard deviation 4.001534498297198 %",-2%
same,inhibition,"Thailand/16681/1984, Concentration 198.0 uM, Number of replicates 2.0, Standard deviation 7.670814768777193 %",-0.908%
O=Cc1ccc(N2CCC(C(=O)N[C@@H](Cn3ccnc3)c3ccccc3)CC2)cc1,inhibition,[1],12.1%
O=C(O)c1cc(Cl)ccc1NS(=O)(=O)c1ccc(Oc2ccccc2Cl)cc1,inhibition,"Thailand/16681/1984, Concentration 49.5 uM, Number of replicates 2.0, Standard deviation 0.09788858447746204 %",95.7%
same,inhibition,"Thailand/16681/1984, Concentration 99.01 uM, Number of replicates 2.0, Standard deviation 0.14802782416517393 %",94.6%
same,inhibition,"Thailand/16681/1984, Concentration 198.0 uM, Number of replicates 2.0, Standard deviation 0.06255266668592849 %",91.9%
O=Cc1ccc(N2CCC(C(=O)N3CCC(Oc4ccccc4)CC3)CC2)cc1,inhibition,[1],14.2%
CCOC(=O)c1coc(Cn2ncc(C3CCNCC3)c2C)n1,inhibition,"Thailand/16681/1984, Concentration 49.5 uM, Number of replicates 2.0, Standard deviation 0.4930753063793731 %",-2.17%
same,inhibition,"Thailand/16681/1984, Concentration 99.01 uM, Number of replicates 2.0, Standard deviation 0.1500208643375571 %",-2.76%
same,inhibition,"Thailand/16681/1984, Concentration 198.0 uM, Number of replicates 2.0, Standard deviation 1.3014042770263519 %",-1.62%
c1ccc2c([C@H]3CCN(Cc4nc[nH]n4)C3)c[nH]c2c1,inhibition,"Thailand/16681/1984, Concentration 49.5 uM, Number of replicates 2.0, Standard deviation 0.3403469284934762 %",-6.54%
same,inhibition,"Thailand/16681/1984, Concentration 99.01 uM, Number of replicates 2.0, Standard deviation 0.28413820544540747 %",-5.92%
same,inhibition,"Thailand/16681/1984, Concentration 198.0 uM, Number of replicates 2.0, Standard deviation 0.5007224305731898 %",-4.6%
CCc1ccc([N+](=O)[O-])cc1NC(=O)C1CCN(c2ccc(C=O)cc2)CC1,inhibition,[1],14%
N#Cc1ccc(N2CCN(C(=O)C3CCN(c4ccc(C=O)cc4)CC3)CC2)nc1,inhibition,[1],12.9%
Cc1nn(Cc2cn(-c3ccccc3)nn2)cc1C1CCNCC1,inhibition,"Thailand/16681/1984, Concentration 49.5 uM, Number of replicates 2.0, Standard deviation 0.6922388903184505 %",-4.44%
same,inhibition,"Thailand/16681/1984, Concentration 99.01 uM, Number of replicates 2.0, Standard deviation 2.187102807540658 %",-3.07%
same,inhibition,"Thailand/16681/1984, Concentration 198.0 uM, Number of replicates 2.0, Standard deviation 0.8904422004610557 %",-3.77%
O=Cc1ccc(N2CCC(C(=O)NCc3noc(-c4cccs4)n3)CC2)cc1,inhibition,[1],13.1%
COc1cc(Cc2ccc3[nH]ncc3c2)nc(N2CCNCC2)n1,inhibition,"Thailand/16681/1984, Concentration 49.5 uM, Number of replicates 2.0, Standard deviation 0.6540005719510628 %",-2.62%
same,inhibition,"Thailand/16681/1984, Concentration 99.01 uM, Number of replicates 2.0, Standard deviation 0.7936485911079066 %",-2.08%
same,inhibition,"Thailand/16681/1984, Concentration 198.0 uM, Number of replicates 2.0, Standard deviation 0.5575261301449747 %",-0.486%
CC(C)(C)[C@H](NC(=O)C1CCN(c2ccc(C=O)cc2)CC1)c1ccccc1,inhibition,[1],11.9%
O=Cc1ccc(N2CCC(C(=O)NCc3ccccc3OC(F)(F)F)CC2)cc1,inhibition,[1],12.7%
C=CCN(Cc1ccc(F)cc1)C(=O)C1CCN(c2ccc(C=O)cc2)CC1,inhibition,[1],15.3%
O=Cc1ccc(N2CCC(C(=O)Nc3ccccc3-c3ccccc3)CC2)cc1,inhibition,[1],12.8%
O=C(OCc1ccccc1)N1C[C@@H](O)[C@H](c2c[nH]c3ccccc23)C1,inhibition,"Thailand/16681/1984, Concentration 49.5 uM, Number of replicates 2.0, Standard deviation 1.2469984697170335 %",4.73%
same,inhibition,"Thailand/16681/1984, Concentration 99.01 uM, Number of replicates 2.0, Standard deviation 0.5609054328484417 %",7.82%
same,inhibition,"Thailand/16681/1984, Concentration 198.0 uM, Number of replicates 2.0, Standard deviation 1.6111806211551787 %",8.93%
